Data on one compound can be found in PMC9300923 (Frontiers in Pharmacology, 2022).

A word on the Kd: it is a measure of binding affinity in units of concentration. Read a low Kd as tighter binding.

Holding throughout (assay): biochemical
For assay [1], the target named is PLY (Pneumolysin O) (Streptococcus pneumoniae, UniProt P0C2J9).
The target in assay [2] is SLO (Streptolysin O) (Streptococcus pyogenes, UniProt P0C0I3).
Assay [3] deals with T1, LLO (Listeriolysin O) (Listeria monocytogenes, UniProt P13128).
T1 construct: gene hly

Chain of UniProt P0C2J9 (P0C2J9 whole entry, looked up): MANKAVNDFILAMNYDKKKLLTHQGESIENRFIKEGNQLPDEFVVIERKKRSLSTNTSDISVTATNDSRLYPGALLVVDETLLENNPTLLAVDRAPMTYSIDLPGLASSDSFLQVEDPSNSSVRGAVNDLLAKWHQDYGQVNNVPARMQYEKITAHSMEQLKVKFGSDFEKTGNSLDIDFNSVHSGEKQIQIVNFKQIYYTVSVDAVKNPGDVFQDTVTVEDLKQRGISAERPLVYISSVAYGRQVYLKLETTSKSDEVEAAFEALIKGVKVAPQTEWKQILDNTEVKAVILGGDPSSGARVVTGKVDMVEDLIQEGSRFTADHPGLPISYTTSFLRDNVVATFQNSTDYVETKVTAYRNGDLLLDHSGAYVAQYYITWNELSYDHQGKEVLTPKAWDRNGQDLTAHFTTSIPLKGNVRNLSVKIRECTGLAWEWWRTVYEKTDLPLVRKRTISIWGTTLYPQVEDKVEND

Regarding `O=c1cc(-c2ccc(O)c(O)c2)oc2cc(O)cc(O)c12` [Luteolin], the dissociation constant (Kd) in assay [1] is 613 nM; in assay [2], 372 nM; in assay [3] it was 437 nM.
